{"source": "PubChem BioAssay AID686978", "about": "(National Center for Advancing Translational Sciences (NCATS), 2013)", "note": "The whole screen tested about 420,000 compounds, of which about 64,000 (15%) were called active. This list was built around the results that the source calls inconclusive (neither active nor inactive); the mix of calls is not that of the screen. The call rests on the fitted dose curve; in most records, active means well fitted inhibition curve with a large enough effect; inconclusive means small, poorly fitted or top-dose-only effect; inactive means flat fitted curve, though single readings scatter. Potencies of inconclusive entries are left out as doubtful fits. On the % scale 0 is the no-effect control and ±100 the full control effect; potency means the concentration at half of the fitted maximal effect; tags describe the fitted curve by direction and shape.", "data": [{"experiment": "qHTS for Inhibitors of human tyrosyl-DNA phosphodiesterase 1 (TDP1): qHTS in cells in absence of CPT; further: nearly all actives have a fitted effect of over 55% in size", "details": "DT40 Tdp1-/- hTDP1 cells, no CPT, ATP luminescence, 48 h; activity change, negative = growth inhibition: at 46.2 µM (top of the series) unless noted", "procedure,_shortened": "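DT40 Tdp1-/-;hTDP1 cells, no CPT (DMSO vehicle only), 400 cells/well; compounds pin-transferred; ≥48 hr, 37 °C; CellTiter-Glo 30 min RT dark, luminescence read.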", "values": [{"smiles": "CC(C)(C)C(=O)n1nc(-c2ccccc2)oc1=O", "activity change, negative = growth inhibition": "inactive: -8.07%"}, {"smiles": "Cc1ccc(S(=O)(=O)N2[C@@H](Cc3ccccc3)CO[C@H]2CC(=O)c2ccc(F)cc2)cc1", "Potency": "inconclusive [inhibitor, single point]"}, {"smiles": "COc1ccc(C(=O)NCc2ccc(F)cc2)cc1S(=O)(=O)N1CCCC1", "activity change, negative = growth inhibition": "inactive: -11.5%"}, {"smiles": "C/C=C(\\C)C(=O)NCCN1C2=NC[C@H](C(C)C)N2C[C@H]1Cc1ccc(O)cc1", "activity change, negative = growth inhibition": "inactive: -5.39%"}, {"smiles": "O=C(NC1CCN(Cc2ccccc2)CC1)C1CCN(S(=O)(=O)c2ccc(Cl)cc2)CC1", "Potency": "active: 16.4 µM"}, {"smiles": "Cc1ccc(-c2nn(-c3ccccc3)cc2C(=O)OCC(=O)Nc2ncc(Cl)cc2Cl)cc1", "activity change, negative = growth inhibition": "inconclusive: -31.1% [inhibitor]"}, {"smiles": "CC(=C/c1ccc(C(C)C)cc1)/C=N/NC(=O)Cn1nnnc1N", "activity change, negative = growth inhibition": "inactive: -28.1%"}, {"smiles": "CC(C)(C)c1ccc(C(=O)N/C(=C\\c2cccs2)C(=O)NCc2ccco2)cc1", "activity change, negative = growth inhibition": "inactive: -24.3%"}, {"smiles": "O=C(CN1C(=O)NC2(CCCCC2)C1=O)Nc1ccc(Cl)cc1", "Potency": "inconclusive [inhibitor, single point]"}, {"smiles": "CCn1c(-c2ccccc2F)nc2cc(NC(C)=O)cc(C(=O)NC(c3ccccn3)C(F)(F)F)c21", "note": "(stereo unspecified)", "Potency": "inconclusive [inhibitor, single point]"}, {"smiles": "Cc1ccc(Cl)cc1N1CCN(c2ncnc3onc(-c4ccc(F)cc4)c23)CC1", "activity change, negative = growth inhibition": "inactive: -6.71%"}, {"smiles": "Cc1cccc(-n2ncc3c2CCCC3NC(=O)CCc2ccncc2)c1C", "note": "(stereo unspecified)", "Potency": "active: 6.51 µM"}, {"smiles": "Cc1ccc(Cn2c(C)c(CNC(C)c3ccccc3)c(C(=O)O)c2C)cc1", "note": "(stereo unspecified)", "Potency": "active: 25.9 µM"}, {"smiles": "Cc1cncn1CCc1nc2c3ccccc3nc(SCC(=O)Nc3ccccc3F)n2n1", "Potency": "inconclusive [inhibitor, single point]"}, {"smiles": "Cc1ccc(Nc2nc(N3CCOCC3)c3ccccc3n2)cc1", "Potency": "active: 20.6 µM"}, {"smiles": "Cc1ccccc1COc1ccc(-c2nn[nH]n2)cc1", "activity change, negative = growth inhibition": "inconclusive: -33.7% [inhibitor]"}, {"smiles": "O=C(N1CCOCC1)C12CCC3CC(CC(C3)C1)C2", "Potency": "inconclusive [inhibitor, single point]"}, {"smiles": "CC(C)C1C(=O)N(Cc2cn(CCC3OCCO3)nn2)CCS(=O)(=O)N1Cc1ccc(-c2cccc(CO)c2)cc1", "note": "(stereo unspecified)", "Potency": "active: 23.1 µM"}, {"smiles": "CC(=O)NC(CC(=O)Nc1cccc(S(=O)(=O)N2CCCC2)c1)c1ccccc1", "note": "(stereo unspecified)", "activity change, negative = growth inhibition": "inactive: -1.79%"}, {"smiles": "COc1cc(CNC(C)C)ccc1OCC(=O)Nc1cccc2ccccc12", "Potency": "active: 18.4 µM"}, {"smiles": "CCc1nc2ccc(C(=O)Nc3cccc(OC)c3)cn2c1N(CC)Cc1cccc(Br)c1", "Potency": "inconclusive [inhibitor, single point]"}, {"smiles": "CCCc1nnc(NC(=O)CNc2ccc(F)cc2)s1", "Potency": "inconclusive [inhibitor, single point]"}, {"smiles": "CC(C)(C)c1ccc(-c2noc(CCC(=O)Nc3cccc(Cl)c3)n2)cc1", "Potency": "inconclusive [inhibitor, single point]"}, {"smiles": "Cc1cc(Br)ccc1SCC(=O)N1CCN(S(=O)(=O)c2ccccc2)CC1", "Potency": "inconclusive [inhibitor, single point]"}, {"smiles": "CN1CCCN(Cc2ccccc2C(F)(F)F)CC1", "Potency": "inconclusive [inhibitor, partial curve, poor fit]"}, {"smiles": "CCOc1cc(C=NN=C2c3ccccc3-c3ccccc32)ccc1O", "Potency": "active: 18.4 µM"}, {"smiles": "CCOC(=O)N1CCN(C(=O)CN(c2cc(C)ccc2OC)S(=O)(=O)c2ccc(C)cc2)CC1", "Potency": "inconclusive [inhibitor, partial curve]"}, {"smiles": "O=S(=O)(c1ccc(NC(=S)N/N=C/c2ccc(N3CCOCC3)cc2)cc1)N1CCOCC1", "Potency": "active: 3.66 µM"}, {"smiles": "Cc1ccc(S(=O)(=O)Cn2nnnc2CN2CCCC3(CCCCC3)C2)cc1", "Potency": "inconclusive [inhibitor, partial curve]"}, {"smiles": "O=[N+]([O-])c1ccc(/C=[N+](\\[O-])[C@@H]2CCCC[C@@H]2/[N+]([O-])=C/c2ccc([N+](=O)[O-])o2)o1", "Potency": "active: 10.3 µM"}, {"smiles": "Cc1nc(CCNC(=O)C2CCC(=O)N(Cc3ccc(Cl)cc3)C2)sc1C", "note": "(stereo unspecified)", "activity change, negative = growth inhibition": "inactive: 2.29%"}, {"smiles": "O=C(c1cc(-n2cnnc2)ccc1Cl)N1CCN(c2nc(-c3ccccc3)cs2)CC1", "Potency": "active: 23.1 µM"}, {"smiles": "O=C(CCc1ccc(S(=O)(=O)N2CCOCC2)cc1)Nc1cc(Cl)ccc1N1CCOCC1", "Potency": "inconclusive [inhibitor, partial curve]"}, {"smiles": "O=C1[C@H]2[C@@H](c3ccccc3)N[C@]3(CCCN(Cc4ccco4)C3=O)[C@H]2C(=O)N1Cc1ccccc1", "Potency": "inconclusive [inhibitor, partial curve, poor fit]"}, {"smiles": "Cc1cccc(NC(=O)c2ccc3c(=O)n4c(nc3c2)CCCCC4)n1", "Potency": "inconclusive [inhibitor, partial curve, poor fit]"}, {"smiles": "CCc1ccc(-n2nc(C)c3c(C(=O)Nc4cc(C)ccc4C)cc(C)nc32)cc1", "Potency": "inconclusive [inhibitor, partial curve, poor fit]"}, {"smiles": "Cc1ccc(Nc2nc(N)nc(-c3oc4ccccc4c3C)n2)cc1", "Potency": "active: 0.058 µM"}, {"smiles": "CCOc1cccc2cc(-c3csc(NC(=O)CCC(=O)NCCN4CCCCC4C)n3)c(=O)oc12", "note": "(stereo unspecified)", "Potency": "inconclusive [inhibitor, single point]"}, {"smiles": "Cn1c(Cc2ccc(Cl)cc2)nnc1SCC(=O)NC1CC1", "activity change, negative = growth inhibition": "inactive: 0.557%"}, {"smiles": "COc1nc(-c2ccc(C)cc2)ccc1-c1noc(-c2ccc(C(C)(C)C)cc2)n1", "Potency": "inconclusive [inhibitor, single point]"}, {"smiles": "Cc1ccc(C(=O)N2CCN(C3c4cccc5cccc(c45)C3NS(=O)(=O)c3ccccc3)CC2)cc1", "note": "(stereo unspecified)", "Potency": "inconclusive [inhibitor, single point]"}, {"smiles": "O=C(NC(NCc1cccnc1)C(Cl)(Cl)Cl)c1cccc2ccccc12", "note": "(stereo unspecified)", "Potency": "active: 14.6 µM"}, {"smiles": "Nc1nc(SCC(=O)Nc2ccc([N+](=O)[O-])cc2)[nH]c(=O)c1NC(=O)c1ccc(Br)cc1", "activity change, negative = growth inhibition": "inactive: 19.3%"}, {"smiles": "COc1ccccc1N1CCN(c2cc(C)nc3nc(-c4ccc(Cl)cc4)nn23)CC1", "Potency": "inconclusive [inhibitor, full curve, poor fit]"}, {"smiles": "Cc1ccc(NC(=O)c2cc(S(=O)(=O)N3CCCC3)c[nH]2)c(C)c1", "Potency": "inactive"}, {"smiles": "Cc1cccc(N2CCN(C(=O)c3ccc4c(c3)c(C)c(C)n4C)CC2C)c1", "note": "(stereo unspecified)", "Potency": "active: 20.6 µM"}, {"smiles": "COc1ccc(OC)c(S(=O)(=O)NCCc2csc3nc(-c4ccccc4)nn23)c1", "Potency": "inconclusive [inhibitor, partial curve]"}, {"smiles": "CC(=O)Nc1cc(C(=O)N2CCc3ccccc3C2)ccc1Sc1ccc(C)cc1", "Potency": "inconclusive [inhibitor, single point]"}, {"smiles": "CC1CCN(S(=O)(=O)c2nnc(NC(=O)c3cccc(F)c3)s2)CC1", "Potency": "inconclusive [inhibitor, single point]"}, {"smiles": "COc1ccc(OC)c(-c2cc(C(=O)NC3CCCC3)c3ccccc3n2)c1", "Potency": "inconclusive [inhibitor, single point]"}, {"smiles": "Cc1sc2nc(CSCC(=O)Nc3ccc(N4CCOCC4)cc3)[nH]c(=O)c2c1C", "Potency": "inconclusive [inhibitor, single point]"}, {"smiles": "Cc1ccc(NC(=O)COc2ccccc2C(N)=O)cc1S(=O)(=O)N1CCCCCC1", "Potency": "active: 3.66 µM"}, {"smiles": "COc1cc(NC(=O)COC(=O)c2ccccc2SCC(=O)N2CCCC2)cc(OC)c1", "Potency": "inconclusive [inhibitor, single point]"}, {"smiles": "CCCCc1c(O)nc(SCC(=O)c2ccccc2)[nH]c1=O", "Potency": "inconclusive [inhibitor, full curve]"}, {"smiles": "COc1ccc(-c2nnc(NC(=O)Cc3ccccc3)o2)cc1", "Potency": "inconclusive [inhibitor, single point]"}, {"smiles": "CCN1CCN(c2cc(C)c3cc(NC(=O)c4ccccc4F)ccc3n2)CC1", "Potency": "inconclusive [inhibitor, single point]"}, {"smiles": "COc1ccc2c(C(=O)c3ccc(C)cc3)n(CCCC(N)=O)[n+]([O-])c2c1", "activity change, negative = growth inhibition": "inactive: -17.4%"}, {"smiles": "COc1nc(Nc2cccc(F)c2)nc(OC)n1", "activity change, negative = growth inhibition": "inactive: -21.3%"}, {"smiles": "Cc1ccc(C(=O)CSc2nc3cc(S(=O)(=O)N4CCOCC4)ccc3o2)cc1", "Potency": "inconclusive [inhibitor, single point]"}, {"smiles": "Cc1ccccc1NS(=O)(=O)c1ccc(Cl)cc1", "Potency": "inconclusive [inhibitor, full curve]"}, {"smiles": "CCC(=O)N1CCC2(CC1)Oc1ccc(Cl)cc1C(=O)C21CC(c2ccc(Cl)cc2)=NO1", "note": "(stereo unspecified)", "Potency": "active: 13 µM"}, {"smiles": "Cc1ccsc1/C=C(\\C#N)C(=O)NC1CCS(=O)(=O)C1", "note": "(stereo unspecified)", "activity change, negative = growth inhibition": "inactive: 11.1%"}, {"smiles": "Cc1ccc(S(=O)(=O)NCC(c2cccnc2)N2CCN(Cc3ccccc3)CC2)cc1", "note": "(stereo unspecified)", "activity change, negative = growth inhibition": "inactive: -27.4%"}, {"smiles": "CC(=O)N1CCc2cc(Br)cc(S(=O)(=O)CCC(=O)Nc3ccc(C)cc3Cl)c21", "activity change, negative = growth inhibition": "inactive: -23.1%"}, {"smiles": "CCOc1ccc2oc(=O)cc(CN3CCN(c4ccc(Cl)cc4)CC3)c2c1", "Potency": "active: 25.9 µM"}, {"smiles": "N#CC1=C(N)OC2=C(C(=O)CCC2)C1C1CC=CCC1", "note": "(stereo unspecified)", "activity change, negative = growth inhibition": "inactive: -29%"}, {"smiles": "Cc1cccc(N(Cc2cc3ccccc3[nH]c2=O)C(=O)c2cccs2)c1", "Potency": "active: 23.1 µM"}, {"smiles": "COc1cccc(C(C(=O)NC2CCCC2)N2CCN(c3ncccc3C#N)CC2)c1OC", "note": "(stereo unspecified)", "Potency": "active: 16.4 µM"}, {"smiles": "Cc1c(C(=O)N(Cc2ccc(N(C)C)cc2)CC2CCCO2)oc2ccc(Br)cc12", "note": "(stereo unspecified)", "Potency": "inconclusive [inhibitor, single point]"}, {"smiles": "Cn1nc(C(F)(F)F)c(/C=N/OC(=O)c2ccccc2)c1Sc1ccc(Cl)cc1", "Potency": "active: 23.1 µM"}, {"smiles": "Cc1ccc(OCC(=O)OCc2nc3scc(-c4ccccc4)c3c(=O)[nH]2)cc1C", "activity change, negative = growth inhibition": "inactive: -5.05%"}]}]}
